Molecules are shown by their SMILES. About 1,200 (2.5%) of roughly 48,000 compounds were called active. Roughly 2% stayed inconclusive and do not appear here.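 Rule for the calls: active = activation of at least 60% and not above a set upper limit (about 1 call in 100 departs from these limits); inconclusive = activation of 40% to 60%, or above that upper limit; inactive = activation under 40%.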 The list shows a part of the results.

Chain of UniProt O75388 (O75388 whole entry, looked up): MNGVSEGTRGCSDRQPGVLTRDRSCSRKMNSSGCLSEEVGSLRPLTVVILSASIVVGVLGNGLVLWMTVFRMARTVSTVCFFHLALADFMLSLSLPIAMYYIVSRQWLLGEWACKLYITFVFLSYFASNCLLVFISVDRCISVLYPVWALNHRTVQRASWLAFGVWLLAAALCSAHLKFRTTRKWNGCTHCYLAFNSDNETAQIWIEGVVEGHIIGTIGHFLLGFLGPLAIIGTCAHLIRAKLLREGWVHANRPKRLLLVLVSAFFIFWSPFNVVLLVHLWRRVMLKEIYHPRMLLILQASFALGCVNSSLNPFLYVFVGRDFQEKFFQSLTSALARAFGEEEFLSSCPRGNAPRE

In this test the target is Probable G-protein coupled receptor 32 (Homo sapiens) (UniProt O75388). Description: qHTS for Agonists of Human Resolvin D1 Receptor DRV1. Note: 0% is about no effect. The conditions noted are these: CHO-K1 GPR32 beta-arrestin PathHunter luminescence, 90 min; at 76.9 µM; active compounds read high; zero percent set by DMSO-only wells. The procedure, abridged:
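Using DMSO wells as EC0, agonist-induced signal was taken as chemiluminescence from beta-Gal reconstituted upon beta-arrestin recruitment to GPR32 in CHO-K1 cells after 90 min compound treatment.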
On the technique in general: Quantitative high-throughput screening tests each substance at several concentrations.
As for `CCOc1ccc(CNC(=O)c2cc(=O)[nH]c3ccc(S(=O)(=O)N4CCCC4)cc23)cc1`, the activation was inactive: -3.65%.

For the molecule `COc1ccc(C(=O)Nc2nc3c(s2)CCCC3)cc1Cl`, the activation is inactive: -20.8%.

Consider `COc1ccc(Cl)cc1CNCCSc1nnnn1C`, for which the activation was inactive: 21.9%.

Take `Cn1c(=O)c2c(-c3ccccc3)n3c(c2n(C)c1=O)C(c1ccco1)Nc1ccccc1-3` (stereo unspecified): the activation is inactive: 8.34%.

As to `CCOc1cccc(NC(=O)CSc2ncc(-c3ccccc3)[nH]2)c1`, the activation is inactive: -14.8%.

As to `CCCn1cc(S(=O)(=O)c2ccc(CC)cc2)c(=O)c2cc(F)c(N(CC)CC)cc21`, the activation was inactive: -7.52%.

Consider `CC(=O)c1ccc(N2CCN(C(=O)CCCCn3c(=O)[nH]c4ccccc4c3=O)CC2)cc1`, for which the activation was inactive: -1.8%.

Consider `CCOc1ccc(NC(=O)c2ccc3c(c2)CCN3S(=O)(=O)c2ccc(Cl)cc2)cc1`, for which the activation is inactive: 0.432%.

Consider `Cc1cccc(Cn2c(=O)n(CCC(=O)NCCc3ccc(Cl)cc3)c(=O)c3sccc32)c1`, for which the activation is inactive: -5.51%.

On to `Cc1ccc(NC(=O)CCC(=O)N2Cc3ccccc3Oc3ncccc32)cc1F`, for which the activation is inactive: -10.3%.

Regarding `O=C(NCc1ccc(F)cc1)c1ccc2nc(N3CCCCC3)sc2c1`, the activation is inactive: -10.5%.

Turning to `Fc1cccc(Cl)c1Cn1c(-c2cccs2)nc2ccccc21`, the activation was inactive: -22.9%.

Regarding `COc1ccc(OC)c(CNC(=O)c2nn(C)c3c2CSc2ccccc2-3)c1`, the activation is inactive: -16.9%.

As for `O=C(NCC(c1ccc2c(c1)OCO2)N1CCOCC1)C(=O)Nc1cccc(Cl)c1` (stereo unspecified), the activation was inactive: -7.01%.

With `Cc1cc(-c2ccc(C)c(S(=O)(=O)NCC3CCN(Cc4ccc(F)cc4)CC3)c2)on1`, the activation is inactive: -29.2%.

For `O=C(O)c1c(CNCc2cccc(F)c2)c2ccccc2n1Cc1ccccc1`, the activation is inactive: -3.47%.

Take `CC(=O)c1ccc(NC(=O)c2cc(S(=O)(=O)N3CCCCCC3)cn2C)cc1`: the activation was inactive: 33.5%.

For the molecule `COc1ccc(-c2nc3c(c(SCC(=O)Nc4ccccc4F)n2)Cc2cc(C)ccc2O3)cc1`, the activation is inactive: -8.56%.

With `Cc1ccc(NC(=O)CCCc2nnc3n(C)c(=O)c4sccc4n23)cc1F`, the activation is inactive: -8.35%.

As to `CCCNC(=O)c1ccc2c(c1)sc1nc(-c3ccc(C)cc3)cn12`, the activation is inactive: -4.25%.

`NC(=O)C1(N2CCCCC2)CCN(C(=O)Nc2ccc(F)cc2)CC1`: the activation was inactive: 18.8%.

Turning to `CCc1ccccc1NC(=O)CN1C(=O)c2ccccc2Sc2ncccc21`, the activation was inactive: -4.39%.

`CC(O)Cn1cnc2c1c(=O)n(C)c(=O)n2C` (stereo unspecified): the activation is inactive: -2.92%.

As for `CC1CCn2c(nc3cc(C(=O)NCc4ccccc4)ccc32)C1` (stereo unspecified), the activation is inactive: -6.15%.

Turning to `Cc1ccc(C)c(N2CCN(C(=O)C3CCCN(Cc4nc(-c5cccc(Cl)c5)oc4C)C3)CC2)c1` (stereo unspecified), the activation is inactive: 19.1%.

As to `O=C(CNC(=O)c1ccccc1)OCc1cc(=O)n2ccsc2n1`, the activation was inactive: -14%.

For the molecule `Cc1[nH]c2ccccc2c1C1(O)C(=O)N(Cc2ccccc2Cl)c2ccccc21` (stereo unspecified), the activation was active: 105%.

With `COc1ccc(NC(=O)Cn2c(=O)n(-c3cccc(C(F)(F)F)c3)c(=O)c3sccc32)cc1`, the activation is inactive: 22.8%.

Take `Cc1ccccc1NC(=O)[C@H](CSCc1ccccc1)N1Cc2ccccc2C1=O`: the activation is inactive: -24.3%.

In the case of `CCc1ccc(S(=O)(=O)Nc2ccc(-c3ccc(N4CCCC4)nn3)cc2)cc1`, the activation is inactive: 5.18%.

For `O=C(NCC(c1ccc(Cl)cc1)N1CCCCC1)c1ccccc1F` (stereo unspecified), the activation is inactive: -18.4%.

Turning to `COc1ccccc1N1CCN(C(=O)CSc2n[nH]c(-c3ccccc3Cl)n2)CC1`, the activation was inactive: -0.906%.

As for `CCOc1ccc(OCC)c(NC(=O)CCc2nc3cccnc3n2-c2ccccc2)c1`, the activation is inactive: -1.86%.

For `COC1(C2=NCCN2)COc2ccccc2O1` (stereo unspecified), the activation was inactive: 2.85%.

As for `CCC1CN(C(=O)Nc2ccc(Br)cc2F)c2ccccc2S1` (stereo unspecified), the activation was inactive: -28.2%.

Turning to `COc1cc(OC)cc(C(=O)Nc2ccc3nc(Nc4cccc(C(F)(F)F)c4)cc(C)c3c2)c1`, the activation is inactive: -9.34%.

For the molecule `O=C(NCc1ccc(F)cc1)c1cnc(N2CCCCC2)c2ccccc12`, the activation was inactive: -2.99%.

As for `CCCOc1ccc(CNC(=O)C2CCCN(c3nc4c(C)cc(C)cc4s3)C2)cc1` (stereo unspecified), the activation is inactive: 1.51%.

For the molecule `C#CCn1c(C2CC(=O)N(c3ccc(OCC)cc3)C2)nc2ccccc21` (stereo unspecified), the activation was inactive: -15.4%.

As for `CCN(CC)C(=O)C1CCN(c2nnc(C)c3c(C)n(-c4ccc(Cl)cc4)nc23)CC1`, the activation was inactive: 7.1%.

On to `Cc1cccc(NC(=O)c2ccc(F)c(S(=O)(=O)N3CCC4(CC3)OCCO4)c2)c1`, for which the activation is inactive: -16.4%.

As for `COc1ccc(NC(=O)Cn2c(=O)n(CCCC(=O)NCCc3ccc(C)cc3)c(=O)c3ccccc32)cc1Cl`, the activation is inactive: -20.1%.

In the case of `Cc1ccc(CCNC(=O)c2ccc3c(c2)N(Cc2ccccc2)C(=O)c2ccccc2S3=O)cc1` (stereo unspecified), the activation was inactive: -6.23%.

As to `COc1ccc(N2CCN(c3ncnc4onc(-c5ccc(F)cc5)c34)CC2)cc1`, the activation was inactive: -31.4%.

Turning to `CC(C)c1ccc(C2c3c(-c4ccccc4O)n[nH]c3C(=O)N2Cc2ccncc2)cc1` (stereo unspecified), the activation was inactive: -7.37%.

Consider `CCCCOC(=O)CSc1nnc(-c2ccc(C)cc2)o1`, for which the activation is inactive: 7.03%.

With `CC(C)Cn1c(=O)c2ccccc2n2c(CCC(=O)N3CCN(c4ccccc4)CC3)nnc12`, the activation was inactive: -36.1%.

In the case of `COc1ccc(C(=O)Nc2nnc(C)s2)cc1`, the activation is inactive: -9.46%.

For `COc1cc(OC)c(NC(=O)N2CCc3cc(OC)c(OC)cc3C2CC(=O)O)cc1Cl` (stereo unspecified), the activation is inactive: -15.4%.

Take `CCc1ccc(C2CC(=O)c3c([nH]c(C(=O)OCCOc4ccccc4)c3C)C2)cc1` (stereo unspecified): the activation was inactive: 22.5%.

`COc1ccc(Nc2cc(C)nc3c(C)c(C)ccc23)cc1`: the activation is inactive: 12.5%.

Consider `NS(=O)(=O)c1cc2c(cc1C(F)(F)F)NCNS2(=O)=O`, for which the activation is inactive: -8%.

For `CC(C)NC[C@@H](O)COc1ccc(CC(N)=O)cc1`, the activation was inactive: -42.2%.

Consider `Cc1ccc(Cl)cc1NC(c1ccc(F)cc1)c1nnc(-c2ccccc2)o1` (stereo unspecified), for which the activation was inactive: -7.08%.

As for `Cc1ccc(NC(=O)C(CC(C)C)NS(=O)(=O)c2ccc3c(c2)oc(=O)n3C)c(C)c1` (stereo unspecified), the activation is inactive: 11%.

Regarding `Cc1ccc2onc(CNC(=O)Nc3cc(F)ccc3F)c2c1`, the activation is inactive: -3.75%.

With `Cc1ccc2c(c1)Cc1c(nc(-c3ccc(Cl)cc3)nc1SCC(=O)N1CCCCC1)O2`, the activation is inactive: 8.77%.

Turning to `Cc1ccn2c(Nc3ccc4c(c3)OCCO4)c(-c3cccs3)nc2c1`, the activation was inactive: -2.25%.

Consider `COc1cccc2c1Oc1ncccc1N(c1ccc(C(=O)NCc3ccccc3Cl)s1)C2`, for which the activation was inactive: -13.1%.

For the molecule `CC(=O)N1CCc2c(sc3c2c(=O)n(CCc2ccccc2)c(=O)n3CC(=O)Nc2ccc(C)c(F)c2)C1`, the activation is inactive: 7.02%.

Regarding `O=C(CSc1nnc(-c2ccc(Cl)cc2)o1)Nc1ccc(F)cc1`, the activation was inactive: -19.6%.

In the case of `COc1ccc(-n2c(=O)c3ccccc3n(Cc3cccc(C)c3)c2=O)cc1`, the activation was inactive: -5.79%.

For `COc1cccc(Cn2c(CNS(=O)(=O)c3ccc(C(C)(C)C)cc3)nc3cccnc32)c1`, the activation was inactive: -15.4%.

On to `CCCN(c1ccc(C(C)C)cc1)S(=O)(=O)c1ccc2c(c1)oc(=O)n2CC(=O)OCC`, for which the activation is inactive: -14.3%.

Take `COc1ccccc1N1CCN(C(=O)c2cc(S(=O)(=O)N3CCC(C)CC3)cn2C)CC1`: the activation was inactive: 3.88%.

For the molecule `COc1ccc(-c2nc(CNC(=O)Nc3ccccc3)c(C)o2)cc1`, the activation is inactive: 26.3%.

`COc1cc2c(-c3cc(Br)ccc3O)nc3c(c(C)nn3-c3ccccc3)c2cc1OC`: the activation was inactive: -1.75%.

Turning to `CCOC(=O)Cn1c(=O)n(CC2CCCO2)c2nc(-c3ccc(C(C)C)cc3)nc(C(N)=O)c21` (stereo unspecified), the activation was inactive: -18.8%.

Regarding `NC(=O)CCCCC1CCSS1` (stereo unspecified), the activation was inactive: -76.6%.

Take `O=C(Nc1nnc(S(=O)(=O)Nc2ccccc2)s1)C1CCCCC1`: the activation was inactive: -4.1%.

For the molecule `CCCSc1nnc2[nH]c(=O)cc(C)n12`, the activation is inactive: -0.514%.

As for `CCOC(=O)c1ccc(N2C(=O)c3n[nH]c(C)c3C2c2ccc(OCC)cc2)cc1` (stereo unspecified), the activation is inactive: -7.25%.

In the case of `Cc1ccccc1N(C)S(=O)(=O)c1nnc(NC(=O)C(C)C)s1`, the activation is inactive: -1.84%.

Regarding `COc1ccccc1N1CCN(CCCCNC(=O)c2ccc(-c3ccc(C(C)=O)cc3)cc2)CC1`, the activation is inactive: 0.854%.

On to `Cc1ccccc1NC(=O)Cn1c(=O)n(Cc2ccccc2)c(=O)c2sc3ccccc3c21`, for which the activation is inactive: -24%.

Consider `CCOc1ccc(C(=O)NCC(c2ccco2)S(=O)(=O)c2cccs2)cc1` (stereo unspecified), for which the activation is inactive: -5.57%.

On to `Cc1ccccc1-c1nn2c(=O)cc(CN3CCN(S(=O)(=O)c4ccc(Cl)cc4)CC3)nc2s1`, for which the activation is inactive: 3.25%.

`COc1ccc2c(C)c(CCC(=O)NCc3ccc(Cl)cc3)c(=O)oc2c1C`: the activation is inactive: 6.47%.

`CCN(Cc1ccccc1)C(=O)c1nn(-c2ccc(OC)cc2)c(=O)c2c1c1ccccc1n2C`: the activation is inactive: -9.38%.

Consider `Cc1nn(-c2ccc(N3CCCC3)nn2)c(C)c1CCC(=O)N1CCN(c2ccccc2)CC1`, for which the activation was inactive: -3.03%.

Regarding `COC(=O)c1ccc(C(=O)OC)c(NC(=O)c2cnn3c(C(F)F)cc(-c4ccccc4)nc23)c1`, the activation was inactive: 2.13%.

For the molecule `O=C(COc1ccccc1F)Nc1ccccc1OCc1cc(=O)n2ccccc2n1`, the activation is inactive: -3.98%.

As to `CC(C)c1ccc(NC(=O)c2ccc(F)c(S(=O)(=O)N3CCCC3)c2)cc1`, the activation was inactive: 31.7%.

Turning to `CC1CCN(C(=O)Cn2cc(SCc3ccccc3)c3ccccc32)CC1`, the activation was inactive: -26.4%.

For the molecule `CN1C(CCl)Nc2cc(Cl)c(S(N)(=O)=O)cc2S1(=O)=O` (stereo unspecified), the activation is inactive: 10.6%.

`CCCc1nnc(N2C(=O)c3oc4ccc(F)cc4c(=O)c3C2c2ccc(C(=O)OC)cc2)s1` (stereo unspecified): the activation was inactive: 8.24%.

These data come from PubChem BioAssay AID1346428 (National Center for Advancing Translational Sciences (NCATS), 2018).
